Data on 22 molecules can be found in the antibiotic and cytotoxicity screens of Wong et al. (2023).

One test concerns HSkMC. The experiment in a line: cytotoxicity call (relative viability < 0.9). The note with it: 10 µM.
A further test relates to HepG2. The experiment in a line: cytotoxicity call (relative viability < 0.9). The note with it: 10 µM.
Another test relates to S. aureus RN4220. The experiment in a line: growth inhibition call (relative growth <= 0.2). The note with it: 50 µM.

Each structure is given as a SMILES string. The list shows a part of the results.

Take `C[C@H](CO)N1C[C@H](C)[C@@H](CN(C)S(=O)(=O)c2cn(C)cn2)Oc2ccc(NS(=O)(=O)c3ccccc3)cc2CC1=O`: the cytotoxicity call with HSkMC and in the test with HepG2 was “inactive” each time. The growth inhibition call with S. aureus RN4220 is “inactive”.

Turning to `C[C@@H]1CCCCO[C@@H](CN(C)C(=O)c2ccccc2)[C@@H](C)CN([C@H](C)CO)C(=O)c2cc(NC(=O)C3CCCCC3)ccc2O1`, the cytotoxicity call with HSkMC and in the test on HepG2 was “inactive” in each case. For the same molecule, the growth inhibition call in the test with S. aureus RN4220 is “inactive”.

`O=C(C[C@@H]1CC[C@@H]2[C@H](COC[C@H](O)CN2S(=O)(=O)c2ccc(F)cc2)O1)N1CCc2ccccc2C1`: the cytotoxicity call with HSkMC and in the test with HepG2 was “inactive” in each case. Besides, the growth inhibition call with S. aureus RN4220 is “inactive”.

Turning to `C[C@@H]1CN([C@H](C)CO)C(=O)c2cc(NC(=O)Cn3cnnn3)ccc2O[C@@H]1CN(C)S(=O)(=O)c1ccc(Cl)cc1`, the cytotoxicity call in the test with HSkMC and with HepG2 was “inactive” in each case. In the test with S. aureus RN4220, the growth inhibition call was “inactive”.

For the molecule `C[C@@H]1CN([C@@H](C)CO)C(=O)c2c(c3ccccc3n2C)-c2ccccc2CO[C@H]1CN(C)C(=O)[C@H](C)c1ccccc1`, the cytotoxicity call in the test with HSkMC and with HepG2 was “inactive” each time. Moreover, the growth inhibition call in the test with S. aureus RN4220 was “inactive”.

In the case of `C[C@@H]1CN([C@@H](C)CO)C(=O)c2cccc(NC(=O)c3ccncc3)c2O[C@@H]1CN(C)S(=O)(=O)c1ccc(F)cc1`, the cytotoxicity call in the test with HSkMC and in the test with HepG2 was “inactive” throughout. The growth inhibition call with S. aureus RN4220 is “inactive”.

With `CC(C)NC(=O)Nc1ccc2c(c1)C(=O)N([C@@H](C)CO)C[C@H](C)[C@H](CN(C)Cc1ccccc1)OCCCC[C@@H](C)O2`, the cytotoxicity call in the test on HSkMC and in the test on HepG2 was “inactive” each time. The growth inhibition call with S. aureus RN4220 is “inactive”.

For the molecule `O=C(CCCCCCC(=O)Nc1ccccc1O)N/N=C/[C@H](O)[C@@H](O)[C@H](O[C@@H]1O[C@H](CO)[C@H](O)[C@H](O)[C@H]1O)[C@H](O)CO`, the cytotoxicity call in the test with HSkMC and in the test with HepG2 was “inactive” in each case. Moreover, the growth inhibition call in the test with S. aureus RN4220 was “inactive”.

As for `C[C@@H]1CN([C@@H](C)CO)C(=O)c2cccc(NS(=O)(=O)c3ccccc3)c2O[C@@H]1CN(C)C(=O)Nc1cccc2ccccc12`, the cytotoxicity call with HSkMC and with HepG2 was “inactive” each time. Further, the growth inhibition call in the test with S. aureus RN4220 was “inactive”.

In the case of `C[C@@H]1CCCCO[C@H](CN(C)C(=O)c2ccncc2)[C@H](C)CN([C@H](C)CO)C(=O)c2cc(NC(=O)C3CCCCC3)ccc2O1`, the cytotoxicity call in the test on HSkMC and with HepG2 was “inactive” in each case. Besides, the growth inhibition call in the test with S. aureus RN4220 is “inactive”.

Take `C[C@@H]1CN([C@H](C)CO)S(=O)(=O)c2ccc(-c3cncnc3)cc2O[C@@H]1CN(C)C(=O)NC1CCCC1`: the cytotoxicity call in the test on HSkMC and with HepG2 was “inactive” in each case. In addition, the growth inhibition call in the test with S. aureus RN4220 was “inactive”.

As for `CC(C)NC(=O)Nc1ccc2c(c1)C(=O)N([C@H](C)CO)C[C@@H](C)[C@@H](CN(C)Cc1ccc3c(c1)OCO3)O2`, the cytotoxicity call in the test with HSkMC and in the test on HepG2 was “inactive” each time. For the same molecule, in the test with S. aureus RN4220, the growth inhibition call was “inactive”.

As for `Cc1ccc(S(=O)(=O)N(C)C[C@@H]2OCCCC[C@@H](C)Oc3ccc(NS(=O)(=O)c4ccc(F)cc4)cc3C(=O)N([C@@H](C)CO)C[C@@H]2C)cc1`, the cytotoxicity call in the test with HSkMC and with HepG2 was “inactive” throughout. Also, the growth inhibition call in the test with S. aureus RN4220 was “inactive”.

As to `C[C@H]1CN([C@@H](C)CO)C(=O)Cc2cc(NC(=O)Nc3ccc(C(F)(F)F)cc3)ccc2O[C@@H]1CN(C)S(=O)(=O)c1ccc(Cl)cc1`, the cytotoxicity call with HSkMC was “inactive”. In addition, in the test with HepG2, the cytotoxicity call was “active”. Further, in the test on S. aureus RN4220, the growth inhibition call is “inactive”.

As for `C[C@@H]1CN([C@@H](C)CO)C(=O)c2cccc(NC(=O)c3ccc(-c4nccs4)cc3)c2O[C@H]1CN(C)C(=O)Nc1ccc(C(F)(F)F)cc1`, the cytotoxicity call in the test on HSkMC and in the test on HepG2 was “inactive” throughout. The growth inhibition call in the test with S. aureus RN4220 was “inactive”.

As to `C[C@@H]1CN([C@H](C)CO)C(=O)Cc2cc(N(C)C)ccc2O[C@H]1CN(C)C(=O)Nc1ccc2c(c1)OCO2`, the cytotoxicity call with HSkMC and with HepG2 was “inactive” each time. Moreover, the growth inhibition call with S. aureus RN4220 was “inactive”.

As to `COc1ccc([C@@H]([C@H](Cc2ccccc2)OC(C)=O)N2C[C@@H]3C(=NO[C@H]3[C@@H](OC(C)=O)c3ccccc3)[C@@H]2Cc2ccccc2)cc1`, the cytotoxicity call in the test with HSkMC and in the test with HepG2 was “inactive” in each case. Besides, the growth inhibition call in the test with S. aureus RN4220 was “inactive”.

Take `COc1ccc(S(=O)(=O)Nc2cccc3c2O[C@H](CN(C)CC2CC2)[C@@H](C)CN([C@@H](C)CO)C3=O)cc1`: the cytotoxicity call in the test on HSkMC and in the test on HepG2 was “inactive” throughout. In the test with S. aureus RN4220, the growth inhibition call was “inactive”.

On to `C[C@H](CO)N1C[C@H](C)[C@@H](CN(C)S(=O)(=O)c2ccc(Cl)cc2)OCCCC[C@H](C)Oc2ccc(NS(=O)(=O)c3ccccc3)cc2C1=O`, for which the cytotoxicity call in the test with HSkMC and with HepG2 was “inactive” each time. In addition, the growth inhibition call in the test on S. aureus RN4220 is “inactive”.

Regarding `NCC1OC(OC2C(CO)OC(OC3C(O)C(N)CC(N)C3OC3OC(CN)C(O)C(O)C3N)C2O)C(N)C(O)C1O.O=S(=O)(O)O.O=S(=O)(O)O.O=S(=O)(O)O` (stereo unspecified), the cytotoxicity call with HSkMC and in the test on HepG2 was “inactive” in each case. The growth inhibition call in the test with S. aureus RN4220 was “inactive”.

Turning to `CCS(=O)(=O)N[C@H]1C=C[C@@H](CC(=O)NCc2ccc(Cl)cc2)O[C@@H]1CO`, the cytotoxicity call in the test on HSkMC (human skeletal muscle cells) and in the test on HepG2 was “inactive” each time. Further, the growth inhibition call in the test on S. aureus RN4220 is “inactive”.

Take `COc1ccc(S(=O)(=O)Nc2ccc3c(c2)C(=O)N([C@@H](C)CO)C[C@H](C)[C@H](CN(C)S(=O)(=O)c2ccc(Cl)cc2)OCCCC[C@@H](C)O3)cc1`: the cytotoxicity call with HSkMC is “inactive”. In addition, the cytotoxicity call with HepG2 was “active”. Moreover, the growth inhibition call with S. aureus RN4220 is “inactive”.
